Data reported in the BET-seq Pho4 binding data (Le et al. 2018).
The other results are listed elsewhere or left out. The energies were worked out here from pooled read counts, against the library average; single values are noisy.

These sequences were tested against T1, Pho4 (S. cerevisiae) (UniProt P07270) (assay: relative binding free energy (BET-seq); higher = weaker binding). Details: reference: library average.
T1 sequence: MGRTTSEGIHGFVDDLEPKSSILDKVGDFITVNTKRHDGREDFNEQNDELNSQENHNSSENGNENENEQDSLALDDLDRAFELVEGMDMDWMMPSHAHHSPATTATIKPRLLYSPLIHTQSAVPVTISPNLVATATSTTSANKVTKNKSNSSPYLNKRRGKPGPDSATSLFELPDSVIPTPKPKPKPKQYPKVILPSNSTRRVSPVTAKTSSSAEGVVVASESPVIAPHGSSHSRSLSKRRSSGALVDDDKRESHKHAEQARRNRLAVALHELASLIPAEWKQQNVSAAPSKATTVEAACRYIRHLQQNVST

Relative binding free energy, 0.4 kcal/mol:
CATTTCACGTGGAGCG

Relative binding free energy, 0.39 kcal/mol:
TGTCTCACGTGAGGTG
TAAAACACGTGAGGAT

Relative binding free energy, 0.44 kcal/mol:
AGGGTCACGTGAATTC

Relative binding free energy, -0.31 kcal/mol:
GAGGGCACGTGCATGT

Relative binding free energy, 0.21 kcal/mol:
TCGTTCACGTGTTAGA
ATGGGCACGTGAAAAG
CGTGGCACGTGAATAT
GTTATCACGTGACAGG

Relative binding free energy, 0.34 kcal/mol:
TATTTCACGTGAGGGG
TTGTTCACGTGACTGA

Relative binding free energy, -0.11 kcal/mol:
TGCCGCACGTGGAGTG

Relative binding free energy, -0.09 kcal/mol:
GTTGCCACGTGTATTT
GACTGCACGTGGGGGG
TTATGCACGTGGTCCG

Relative binding free energy, -0.01 kcal/mol:
TATTGCACGTGAAGAT
ATGGTCACGTGGCGAA
GCGGGCACGTGTGAGC
TGGATCACGTGGGTCT
TATTGCACGTGTATGG

Relative binding free energy, 0.14 kcal/mol:
CTGGTCACGTGATAGT
TAGATCACGTGGTGTC
ACGGGCACGTGAAAGG
TTAGACACGTGATTGA

Relative binding free energy, 0.35 kcal/mol:
TGATTCACGTGTCTCT

Relative binding free energy, 0.05 kcal/mol:
TTTAACACGTGGCGTT
TTCGTCACGTGGGTAT
GGTGTCACGTGGGGGT
TGGGGCACGTGAGTCT
AGCTTCACGTGGGGTA

Relative binding free energy, 0.46 kcal/mol:
GTCATCACGTGATGAG
TCATTCACGTGACGTG
TTGCTCACGTGAGGTG

Relative binding free energy, 0.26 kcal/mol:
TTCATCACGTGTGCAT
CTTTTCACGTGGATGT
AGCGACACGTGAGGGT

Relative binding free energy, 0.19 kcal/mol:
TGTCACACGTGTTAAT
GAGGTCACGTGTTGAG
TTGGTCACGTGTTCAG

Relative binding free energy, 0.18 kcal/mol:
TTTTTCACGTGCGTCA

Relative binding free energy, -0.1 kcal/mol:
GTGGGCACGTGCAATT
GGCAGCACGTGTGTGT
CGGGACACGTGGGCGG

Relative binding free energy, -0.02 kcal/mol:
AGTGGCACGTGATAGA
GGTTACACGTGGGCAA

Relative binding free energy, 0.33 kcal/mol:
TGTTACACGTGAACTT
AGGCTCACGTGTGAAT
GAGGTCACGTGGAATG

Relative binding free energy, -0.07 kcal/mol:
ATCGACACGTGGTGGT
ATTTGCACGTGCGGGG
TGTTCCACGTGTTCGG
GTGCGCACGTGATGTG
TGAGTCACGTGCGAGG

Relative binding free energy, 0.01 kcal/mol:
TACGGCACGTGTGAAG
ATGAACACGTGGTGGG
ATGGACACGTGTTAGT
TGCTACACGTGGTTTG
GAGTGCACGTGGGAGG
TGCAACACGTGTCGGG
CTGTGCACGTGTCTGT

Relative binding free energy, 0.12 kcal/mol:
TTACTCACGTGCGTTT
GGTATCACGTGTAGGT
AAATACACGTGTGTGA
TCTTACACGTGGTGCG
GCTGTCACGTGTTGGA

Relative binding free energy, 0.29 kcal/mol:
GGGGTCACGTGGAATT
GGGTTCACGTGGCGTC
ATGGACACGTGAGCTT
AGTTTCACGTGCTGGA

Relative binding free energy, -0.25 kcal/mol:
CGCCGCACGTGGGGGG
TGTGGCACGTGGGTAT
ATGTACACGTGGGCTA

Relative binding free energy, 0.02 kcal/mol:
TGTCGCACGTGTGATA
GATGTCACGTGGGAGC
TGTGACACGTGTGGAA

Relative binding free energy, -0.03 kcal/mol:
TCGGGCACGTGGAAAG
TAATCCACGTGGTGGA
TTTGCCACGTGTATAG
GGGTGCACGTGGATAA
AGTGGCACGTGGCTAG
CGTTGCACGTGGATGA

Relative binding free energy, -0.26 kcal/mol:
TTCCGCACGTGGGGGG
AGAGGCACGTGCGATG

Relative binding free energy, 0.37 kcal/mol:
GTGTGCACGTGAGAGC
ATGTTCACGTGAAGAG

Relative binding free energy, 0.27 kcal/mol:
ATGGTCACGTGAGGAA
AGCTTCACGTGATGGT
TTTTCCACGTGAGGTG
TTTTGCACGTGAGTAC

Relative binding free energy, -0.13 kcal/mol:
CGGTCCACGTGGGCGG
TTAACCACGTGGGGAG

Relative binding free energy, -0.23 kcal/mol:
TATAGCACGTGGTGAT
TAGGGCACGTGTCCTG

Relative binding free energy, 0.06 kcal/mol:
GAGGACACGTGTTTGT
AGGTGCACGTGATGAG
CTTGACACGTGTAAGG
TGGAACACGTGTTATT
GTGGGCACGTGAGACA

Relative binding free energy, 0.11 kcal/mol:
TGTATCACGTGTCGCT
TCGGTCACGTGTAGGA
TTGACCACGTGTTTGA
GAGTACACGTGTAAGT

Relative binding free energy, -0.24 kcal/mol:
TCGGGCACGTGGCGGC
TACTGCACGTGGGGGC

Relative binding free energy, 0.23 kcal/mol:
CTGGACACGTGAGGTT
TTTGTCACGTGACGGG
TGAGTCACGTGAGGCT
TAGCTCACGTGGATGT

Relative binding free energy, -0.04 kcal/mol:
CTGTGCACGTGGTCAT
ATAGTCACGTGGTGCG
TGGTACACGTGGTTAG
TAGGTCACGTGGGGGC
AGAGCCACGTGTTGGT
TCAGTCACGTGGGTTT

Relative binding free energy, -0.28 kcal/mol:
TTGGCCACGTGGGATA
TTGAGCACGTGGGGTG

Relative binding free energy, -0.15 kcal/mol:
CGAGGCACGTGCAGGG

Relative binding free energy, 0.07 kcal/mol:
TTCTACACGTGCGTGG
GTTGACACGTGGTGAA
TGAGTCACGTGGTTAT
TTCGTCACGTGGAAAG
AGGGTCACGTGCGTTG
TGTTGCACGTGGTGAG
TTAGCCACGTGAGTGT
GGGGTCACGTGGGCAC

Relative binding free energy, -0.05 kcal/mol:
GGTGACACGTGGTGCT
GGCGGCACGTGCATGT
AGCAACACGTGTGGGT
TATGCCACGTGTGGGC
AGGATCACGTGGTATA

Relative binding free energy, 0.22 kcal/mol:
AATTTCACGTGTAATA
ATTGGCACGTGAGAAA

Relative binding free energy, -0.08 kcal/mol:
AGAGCCACGTGTGGAG
TTGTGCACGTGGAACT

Relative binding free energy, 0.03 kcal/mol:
GTATACACGTGTAGGG
GGACGCACGTGATGGT
GTTTACACGTGTTGTG
AATTGCACGTGATATG
AGGTGCACGTGATAGT
CGGGGCACGTGCAGTT
TTATGCACGTGTAGGG

Relative binding free energy, 0.13 kcal/mol:
GCTTTCACGTGTGGCG
CAAGTCACGTGGCGGG
GTTCACACGTGTTTTG
TAATACACGTGAATTG

Relative binding free energy, 0.1 kcal/mol:
TATAGCACGTGATATG
ATATTCACGTGGGTTC

Relative binding free energy, 0.42 kcal/mol:
GGATTCACGTGTAAGT
TTGTTCACGTGAGTGG

Relative binding free energy, 0.43 kcal/mol:
TTGTTCACGTGTTCCG
GTTGTCACGTGAGAAG

Relative binding free energy, 0.2 kcal/mol:
CGTGTCACGTGTTTGT
ACTTTCACGTGGTTGA
ACTTTCACGTGTTTGT
TTCGTCACGTGCGGTT
ATGCACACGTGAGTGT

Relative binding free energy, 0.04 kcal/mol:
TTTGTCACGTGTAGGT
TGTTACACGTGTCGGA
TTAAGCACGTGGATGC
AGTTTCACGTGCGCGG

Relative binding free energy, 0.31 kcal/mol:
ATCTTCACGTGTTGCA
GTGATCACGTGACAGT

Relative binding free energy, 0.5 kcal/mol:
TTGTTCACGTGAGGTT

Relative binding free energy, 0.25 kcal/mol:
GTTGTCACGTGTTAGT
CGGATCACGTGTGTTT

Relative binding free energy, -0.17 kcal/mol:
GTGCACACGTGGCGTG
ACGTGCACGTGGGCAG
CTTGGCACGTGGACGT

Relative binding free energy, 0.28 kcal/mol:
ATTTTCACGTGAAAAG

Relative binding free energy, -0.18 kcal/mol:
TAAAACACGTGGTTGT
TAGAGCACGTGGTGAT

Relative binding free energy, 0.09 kcal/mol:
CGAGTCACGTGTTGCG
AGTACCACGTGAGGGT

Relative binding free energy, 0.08 kcal/mol:
GCGGTCACGTGTTGTA
TTTTCCACGTGTGCGT
GTGGTCACGTGCGGTT
GGTTACACGTGGGTGT
TATGTCACGTGCGATG
TCCGGCACGTGTGGGC
GTTCGCACGTGTATAG

Relative binding free energy, -0.2 kcal/mol:
ATAGGCACGTGGGGGG
TGGCGCACGTGGTCGA
GGGGACACGTGGGGCG

Relative binding free energy, 0.17 kcal/mol:
ATCGTCACGTGTTATG
CTCATCACGTGTGGTT
AATATCACGTGGGAAA
TTATTCACGTGGGTAT
GTAGGCACGTGAAGGA
GAAATCACGTGTTGGT
GGGCTCACGTGTGGTC
ACATTCACGTGGGCGG

Relative binding free energy, -0.19 kcal/mol:
TTCTGCACGTGGGGTA
GCGGGCACGTGTGGAT
ATACGCACGTGGCGTG

Relative binding free energy, 0.3 kcal/mol:
GATCTCACGTGTTAGG

Relative binding free energy, 0.51 kcal/mol:
CTGGTCACGTGAAATG

Relative binding free energy, 0.41 kcal/mol:
GGGTTCACGTGTCAAA

Relative binding free energy, 0.24 kcal/mol:
GGTATCACGTGCACGT
GTGAGCACGTGAGTTG
GTGTTCACGTGCGGAT
GTAGTCACGTGAAGGA
AAGGTCACGTGAGGTA

Relative binding free energy, 0.32 kcal/mol:
CGTCTCACGTGTTTGG

Relative binding free energy, 0.15 kcal/mol:
TTCATCACGTGGTTAG
AAGGTCACGTGATGGC
AGCTGCACGTGTTTAG
GGCTACACGTGGTTTA
AGTGTCACGTGTCGAA

Relative binding free energy, 0.16 kcal/mol:
GGTGACACGTGATGGT
TGGCGCACGTGTGATA
GGTTACACGTGTAGCT
CGTTTCACGTGCTGTT
TGTTCCACGTGTGGTC
TTATTCACGTGGGATA
TGAACCACGTGTGGGT

Relative binding free energy, 0 kcal/mol:
GGGTGCACGTGTGCTC
TTCTGCACGTGTCTTG
TGTCACACGTGGGGGG
GTTTGCACGTGGCGTT
ACGTGCACGTGCTGTT
TGTTGCACGTGCTTAA
AGACGCACGTGTGAGT

Relative binding free energy, -0.12 kcal/mol:
TATTGCACGTGTCATG
TATGGCACGTGTCTAT
GGCGGCACGTGGCGTT
GAGAGCACGTGCGTTG
TATTGCACGTGGTTCA
AGGTGCACGTGATCAG
TGAGACACGTGGGCTT
CTGTGCACGTGTTAAT
